# Reference: article PMC6778083 (Nature Communications, 2019)
# Positions count from the first letter of the chain named. Numbers in names are those of the source.
# B1: AdhE F670A mutant, Escherichia coli K12 (enzyme, UniProt P0A9Q7 1-891, looked up)
# chain: MAVTNVAELNALVERVKKAQREYASFTQEQVDKIFRAAALAAADARIPLAKMAVAESGMGIVEDKVIKNHFASEYIYNAYKDEKTCGVLSEDDTFGTITIAEPIGIICGIVPTTNPTSTAIFKSLISLKTRNAIIFSPHPRAKDATNKAADIVLQAAIAAGAPKDLIGWIDQPSVELSNALMHHPDINLILATGGPGMVKAAYSSGKPAIGVGAGNTPVVIDETADIKRAVASVLMSKTFDNGVICASEQSVVVVDSVYDAVRERFATHGGYLLQGKELKAVQDVILKNGALNAAIVGQPAYKIAELAGFSVPENTKILIGEVTVVDESEPFAHEKLSPTLAMYRAKDFEDAVEKAEKLVAMGGIGHTSCLYTDQDNQPARVSYFGQKMKTARILINTPASQGGIGDLYNFKLAPSLTLGCGSWGGNSISENVGPKHLINKKTVAKRAENMLWHKLPKSIYFRRGSLPIALDEVITDGHKRALIVTDRFLFNNGYADQITSVLKAAGVETEVFFEVEADPTLSIVRKGAELANSFKPDVIIALGGGSPMDAAKIMWVMYEHPETHFEELALRFMDIRKRIYKFPKMGVKAKMIAVTTTSGTGSEVTPFAVVTDDATGQKYPLADYALTPDMAIVDANLVMDMPKSLCAFGGLDAVTHAMEAYVSVLASEASDGQALQALKLLKEYLPASYHEGSKNPVARERVHSAATIAGIAFANAFLGVCHSMAHKLGSQFHIPHGLANALLICNVIRYNANDNPTKQTAFSQYDRPQARRRYAEIADHLGLSAPGDRTAAKIEKLLAWLETLKAELGIPKSIREAGVQEADFLANVDKLSEDAFDDQCTGANPRYPLISELKQILLDTYYGRDYVEGETAAKKEAAPAKAEKKAKKSA
# B2: AdhE F670V mutant, Escherichia coli K12 (enzyme, UniProt P0A9Q7 1-891, looked up)
# chain: B1 chain with A670V
# B3: AdhE F670E mutant, Escherichia coli K12 (enzyme, UniProt P0A9Q7 1-891, looked up)
# chain: B1 chain with A670E
# Legend:
# AUC = biological target: the molecule itself; assay: AUC
# SEC-SAXS = biological target: the molecule itself; assay: SEC-SAXS
Protein,binding result (AUC),stoichiometry N (SEC-SAXS)
B1,binds,–
B2,binds,–
B3,–,2
